Measurements taken from patent US9278107B2, “Antibacterial agent composition and antiviral agent composition comprising silicon-containing compound; antibacterializing method, cleaning/mouth rinsing method; method for fixing antibacterial agent and antiviral agent” (Hiroshima University, priority 2008, dated 2016).

System: Escherichia coli WP2uvrA and Salmonella typhimurium TA series strains (TA100, TA1535, TA98 and TA1537)
Settings: positive control, in the presence of S9mix

In the case of `Nc1ccc2cc3ccccc3cc2c1` [2-Aminoanthracene], the reverse mutation is reported as “obvious reverse mutation”.
